Test results reported in the supplement of paper PMC8728848.
This is one part of the list.

How the values were obtained:
Experiment in all cases: glycan array binding signal (z-score within array); higher = stronger binding
Settings in all cases: glycan notation: IUPAC condensed, linker removed
[1] = molecular target: Gal(b1-3)[Fuc(a1-4)]GlcNAc(b1-2)Man
Outline: (§1)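 From the Consortium for Functional Glycomics database, 3228 arrays were curated, keeping only those whose protein sequence was available. Binding is given as a within-array Z-score averaged across arrays sharing a protein sequence and across linkers. Negative Z-scores can be read as non-binding.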

[2] = molecular target: Gal(b1-3)[Fuc(a1-4)]GlcNAc(b1-2)Man(a1-3)[Gal(b1-3)[Fuc(a1-4)]GlcNAc(b1-2)Man(a1-6)]Man(b1-4)GlcNAc(b1-4)GlcNAc
Outline: as §1

[3] = molecular target: Gal(b1-3)[Fuc(a1-4)]GlcNAc(b1-2)Man(a1-3)[Gal(b1-3)[Fuc(a1-4)]GlcNAc(b1-2)Man(a1-6)]Man(b1-4)GlcNAc(b1-4)[Fuc(a1-6)]GlcNAc
Outline: as §1

[4] = molecular target: Gal(b1-3)[Fuc(a1-4)]GlcNAc(b1-3)Gal(b1-3)[Fuc(a1-4)]GlcNAc
Outline: as §1

[5] = molecular target: Gal(b1-3)[Fuc(a1-4)]GlcNAc(b1-3)Gal(b1-4)GlcNAc
Outline: as §1

[6] = molecular target: Gal(b1-3)[Fuc(a1-4)]GlcNAc(b1-3)Gal(b1-4)[Fuc(a1-3)]GlcNAc
Outline: as §1

[7] = molecular target: Gal(b1-3)[Fuc(a1-4)]GlcNAc(b1-6)GalNAc
Outline: as §1

[8] = molecular target: Gal(b1-3)[GlcNAc(b1-6)]GalNAc
Outline: as §1

[9] = molecular target: Gal(b1-3)[Neu5Ac(a2-6)]GalNAc
Outline: as §1

[10] = molecular target: Gal(b1-3)[Neu5Ac(a2-6)]GlcNAc(b1-4)Gal(b1-4)Glc
Outline: as §1

[11] = molecular target: Gal(b1-3)[Neu5Ac(a2-6)]GlcNAc(b1-6)Gal(b1-4)Glc
Outline: as §1

[12] = molecular target: Gal(b1-3)[Neu5Ac(b2-6)]GalNAc
Outline: as §1

Gal(b1-4)Gal = molecular target: Gal(b1-4)Gal
Outline: as §1

[13] = molecular target: Gal(b1-4)GalNAc(a1-3)[Fuc(a1-2)]Gal(b1-4)GlcNAc
Outline: as §1

[14] = molecular target: Gal(b1-4)GalNAc(b1-3)[Fuc(a1-2)]Gal(b1-4)GlcNAc
Outline: as §1

Gal(b1-4)Glc = molecular target: Gal(b1-4)Glc
Outline: as §1

Gal(b1-4)Glc6S = molecular target: Gal(b1-4)Glc6S
Outline: as §1

Gal(b1-4)GlcNAc = molecular target: Gal(b1-4)GlcNAc
Outline: as §1

[15] = molecular target: Gal(b1-4)GlcNAc(a1-6)Gal(b1-4)GlcNAc
Outline: as §1

Gal(b1-4)GlcNAc(b1-2)Man = molecular target: Gal(b1-4)GlcNAc(b1-2)Man
Outline: as §1

[16] = molecular target: Gal(b1-4)GlcNAc(b1-2)Man(a1-3)Man(b1-4)GlcNAc(b1-4)GlcNAc
Outline: as §1

[17] = molecular target: Gal(b1-4)GlcNAc(b1-2)Man(a1-3)[Gal(b1-4)GlcNAc(b1-2)Man(a1-6)]Man(b1-4)GlcNAc(b1-4)GlcNAc
Outline: as §1

[18] = molecular target: Gal(b1-4)GlcNAc(b1-2)Man(a1-3)[Gal(b1-4)GlcNAc(b1-2)Man(a1-6)]Man(b1-4)GlcNAc(b1-4)[Fuc(a1-6)]GlcNAc
Outline: as §1

[19] = molecular target: Gal(b1-4)GlcNAc(b1-2)Man(a1-3)[Gal(b1-4)GlcNAc(b1-2)Man(a1-6)][Gal(b1-4)GlcNAc(b1-4)]Man(b1-4)GlcNAc(b1-4)[Fuc(a1-6)]GlcNAc
Outline: as §1

[20] = molecular target: Gal(b1-4)GlcNAc(b1-2)Man(a1-3)[Gal(b1-4)GlcNAc(b1-2)Man(a1-6)][GlcNAc(b1-4)]Man(b1-4)GlcNAc(b1-4)[Fuc(a1-6)]GlcNAc
Outline: as §1

[21] = molecular target: Gal(b1-4)GlcNAc(b1-2)Man(a1-3)[GlcNAc(b1-2)Man(a1-6)]Man(b1-4)GlcNAc(b1-4)GlcNAc
Outline: as §1

[22] = molecular target: Gal(b1-4)GlcNAc(b1-2)Man(a1-3)[GlcNAc(b1-4)][Gal(b1-4)GlcNAc(b1-2)Man(a1-6)]Man(b1-4)GlcNAc(b1-4)GlcNAc
Outline: as §1

[23] = molecular target: Gal(b1-4)GlcNAc(b1-2)Man(a1-3)[Man(a1-6)]Man(b1-4)GlcNAc(b1-4)GlcNAc
Outline: as §1

[24] = molecular target: Gal(b1-4)GlcNAc(b1-2)Man(a1-6)Man(b1-4)GlcNAc(b1-4)GlcNAc
Outline: as §1

[25] = molecular target: Gal(b1-4)GlcNAc(b1-2)Man(a1-6)[GlcNAc(b1-2)Man(a1-3)]Man(b1-4)GlcNAc(b1-4)GlcNAc
Outline: as §1

[26] = molecular target: Gal(b1-4)GlcNAc(b1-2)Man(a1-6)[Man(a1-3)]Man(b1-4)GlcNAc(b1-4)GlcNAc
Outline: as §1

[27] = molecular target: Gal(b1-4)GlcNAc(b1-2)[Gal(b1-4)GlcNAc(b1-4)]Man(a1-3)[Gal(b1-4)GlcNAc(b1-2)Man(a1-6)]Man(b1-4)GlcNAc(b1-4)GlcNAc
Outline: as §1

[28] = molecular target: Gal(b1-4)GlcNAc(b1-2)[Gal(b1-4)GlcNAc(b1-4)]Man(a1-3)[Gal(b1-4)GlcNAc(b1-2)[Gal(b1-4)GlcNAc(b1-6)]Man(a1-6)]Man(b1-4)GlcNAc(b1-4)GlcNAc
Outline: as §1

[29] = molecular target: Gal(b1-4)GlcNAc(b1-2)[Gal(b1-4)GlcNAc(b1-4)]Man(a1-3)[GlcNAc(b1-4)][Gal(b1-4)GlcNAc(b1-2)Man(a1-6)]Man(b1-4)GlcNAc(b1-4)GlcNAc
Outline: as §1

[30] = molecular target: Gal(b1-4)GlcNAc(b1-2)[Gal(b1-4)GlcNAc(b1-4)]Man(a1-3)[GlcNAc(b1-4)][Gal(b1-4)GlcNAc(b1-2)[Gal(b1-4)GlcNAc(b1-6)]Man(a1-6)]Man(b1-4)GlcNAc(b1-4)GlcNAc
Outline: as §1

[31] = molecular target: Gal(b1-4)GlcNAc(b1-2)[Gal(b1-4)GlcNAc(b1-6)]Man(a1-6)[Gal(b1-4)GlcNAc(b1-2)Man(a1-3)]Man(b1-4)GlcNAc(b1-4)GlcNAc
Outline: as §1

[32] = molecular target: Gal(b1-4)GlcNAc(b1-2)[Gal(b1-4)GlcNAc(b1-6)]Man(a1-6)[Gal(b1-4)GlcNAc(b1-2)Man(a1-3)]Man(b1-4)GlcNAc(b1-4)[Fuc(a1-6)]GlcNAc
Outline: as §1

[33] = molecular target: Gal(b1-4)GlcNAc(b1-2)[Gal(b1-4)GlcNAc(b1-6)]Man(a1-6)[GlcNAc(b1-4)][Gal(b1-4)GlcNAc(b1-2)Man(a1-3)]Man(b1-4)GlcNAc(b1-4)GlcNAc
Outline: as §1

[34] = molecular target: Gal(b1-4)GlcNAc(b1-2)[Gal(b1-4)GlcNAc(b1-6)]Man(a1-6)[GlcNAc(b1-4)][Gal(b1-4)GlcNAc(b1-2)[Gal(b1-4)GlcNAc(b1-4)]Man(a1-3)]Man(b1-4)GlcNAc(b1-4)[Fuc(a1-6)]GlcNAc
Outline: as §1

[35] = molecular target: Gal(b1-4)GlcNAc(b1-3)Gal(b1-3)GalNAc
Outline: as §1

[36] = molecular target: Gal(b1-4)GlcNAc(b1-3)Gal(b1-3)GlcNAc
Outline: as §1

[37] = molecular target: Gal(b1-4)GlcNAc(b1-3)Gal(b1-4)Glc
Outline: as §1

[38] = molecular target: Gal(b1-4)GlcNAc(b1-3)Gal(b1-4)GlcNAc
Outline: as §1

[39] = molecular target: Gal(b1-4)GlcNAc(b1-3)Gal(b1-4)GlcNAc(b1-2)Man(a1-3)[Gal(b1-4)GlcNAc(b1-3)Gal(b1-4)GlcNAc(b1-2)Man(a1-6)]Man(b1-4)GlcNAc(b1-4)GlcNAc
Outline: as §1

[40] = molecular target: Gal(b1-4)GlcNAc(b1-3)Gal(b1-4)GlcNAc(b1-2)Man(a1-3)[Gal(b1-4)GlcNAc(b1-3)Gal(b1-4)GlcNAc(b1-2)Man(a1-6)]Man(b1-4)GlcNAc(b1-4)[Fuc(a1-6)]GlcNAc
Outline: as §1

B1: HPA (Helix pomatia), Q2F1K8 (protein)
chain: MQAFYSGLLLLCVVAFAAAQRVQSGKIDCGNDAGWAKVPSDDPGRDNTRELAKNITFASPYCRPPVVLLSITQLDVEQSQNLRVIARLYSVSPTGFKASCYTWHNTKVYSMSISWISIENY
glycan array binding signal (z-score) [1]: -0.063
glycan array binding signal (z-score) [2]: 2.87
glycan array binding signal (z-score) [3]: 0.187
glycan array binding signal (z-score) [4]: 0.312
glycan array binding signal (z-score) [5]: -0.281
glycan array binding signal (z-score) [6]: -0.178
glycan array binding signal (z-score) [7]: 0.042
glycan array binding signal (z-score) [8]: -0.136
glycan array binding signal (z-score) [9]: -0.168
glycan array binding signal (z-score) [10]: -0.283
glycan array binding signal (z-score) [11]: -0.38
glycan array binding signal (z-score) [12]: -0.122
glycan array binding signal (z-score) (Gal(b1-4)Gal): -0.293
glycan array binding signal (z-score) [13]: -0.24
glycan array binding signal (z-score) [14]: -0.052
glycan array binding signal (z-score) (Gal(b1-4)Glc): -0.081
glycan array binding signal (z-score) (Gal(b1-4)Glc6S): -0.161
glycan array binding signal (z-score) (Gal(b1-4)GlcNAc): -0.173
glycan array binding signal (z-score) [15]: -0.184
glycan array binding signal (z-score) (Gal(b1-4)GlcNAc(b1-2)Man): -0.271
glycan array binding signal (z-score) [16]: -0.229
glycan array binding signal (z-score) [17]: -0.207
glycan array binding signal (z-score) [18]: -0.228
glycan array binding signal (z-score) [19]: -0.288
glycan array binding signal (z-score) [20]: -0.272
glycan array binding signal (z-score) [21]: -0.182
glycan array binding signal (z-score) [22]: -0.311
glycan array binding signal (z-score) [23]: -0.283
glycan array binding signal (z-score) [24]: -0.244
glycan array binding signal (z-score) [25]: -0.313
glycan array binding signal (z-score) [26]: -0.078
glycan array binding signal (z-score) [27]: -0.109
glycan array binding signal (z-score) [28]: -0.277
glycan array binding signal (z-score) [29]: -0.253
glycan array binding signal (z-score) [30]: -0.211
glycan array binding signal (z-score) [31]: -0.297
glycan array binding signal (z-score) [32]: -0.136
glycan array binding signal (z-score) [33]: -0.347
glycan array binding signal (z-score) [34]: -0.325
glycan array binding signal (z-score) [35]: -0.293
glycan array binding signal (z-score) [36]: -0.058
glycan array binding signal (z-score) [37]: -0.129
glycan array binding signal (z-score) [38]: -0.256
glycan array binding signal (z-score) [39]: 0.695
glycan array binding signal (z-score) [40]: 0.081
